Results on 167 variants are retold here after the RNAGym collection of RNA variant scans (doi:10.1093/nar/gkz1192).

B1: CPEB3 Ribozyme (parent)
chain: UAACAGGGGGCCACAGCAGAAGCGUUCACGUCGCAGCCCCUGUCAGAUUCUGGUGAAUCUGCGAAUUCUGCUGUAUAUCUC

Read counts are not given, so values of variants with three or more changes are uncertain.

Variants of B1 are the subject of the data set. Briefly: self-cleavage, relative activity (ratio to wild type); higher = more cleavage; in vitro, sequencing. The procedure, abridged:
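After error-prone PCR and barcoding, CPEB3 ribozyme mutant libraries were transcribed with T7 RNA polymerase at 37°C for 5 hours, then given 15 min with DNase I before an EDTA stop, and they cleaved during both steps. Reverse transcription with template switching preceded Illumina sequencing. Relative activity divides a variant's cleaved/total read fraction by the unmutated ribozyme's. At least 5 reads were required per variant, and three batches were averaged.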
For the variant A18G U48C U51C U67C, the self-cleavage turned out to be 0.18.
Under A18U U41G U66C U67C A77G stands 0.2; under A18U U31A U66C, 0.19; under A18U A45G G61U, 0.18.
Under A18U C39U U80C stands 0.37.
With G19A U26C G46A, the self-cleavage came to 0.23.
Take G19A U60A C62A: the self-cleavage amounted to 0.07.
Then A18U A28G U41A U72C U74C A75G, with 0.24; and A18G G30A G46C A57U G63A, with 0.06.
Then A18G C29U A35G A45U U48G U69A U78C, with 0.06.
With A18G A47U A57G U69A U72C, the self-cleavage came out at 0.1.
Under A18G G63U U66C stands 0.2; under A18U G30A A56G, 0.19.
With A18U A47G U48C C62U, the self-cleavage was found to be 0.2.
Consider A18G C59U A64U, for which the self-cleavage stood at 0.23.
As to A18G G24U U25C U31A U41C, the self-cleavage worked out at 0.17.
As for A18U A20U C79G, the self-cleavage worked out at 0.05.
As to A18G U31A U43C, the self-cleavage was found to be 0.3.
Take A18G C38A U41C U60G U76C: the self-cleavage is 0.18.
Then A18U A45G U80C, with 0.47.
Consider A18U U25C A57G U69C U72A, for which the self-cleavage stood at 0.31.
Under A18U A21U A56G U69A stands 0.35; under A18U G19A G36U A47G U69G, 0.09; under A18G U25A A45U U72A U78C, 0.34.
Under A18U A35G U69C G73A A75G stands 1.11.
Under G19A U31A C34U stands 0.14.
For the variant A18U U25C A65G, the self-cleavage worked out at 0.24.
Then A18U A28C U51A U72C, with 0.21; and A18G U69C U74C U78A, with 1.26; and A18G U41C U72A U80C, with 0.31.
Under A18U A45U U78C stands 0.
As to A18G G42U U78C, the self-cleavage amounted to 0.42.
For A18G C40U U43C U49A U67C, the self-cleavage was found to be 0.12.
Then A18U G24A U31A U49C, with 0.05; and A18U U41C A56G A64G U72A, with 0.22.
On to A18G G22A U69C U72A, for which the self-cleavage amounted to 0.07.
Then A18G C27A A56U A57G U66C U69C U72C, with 0.12; and A18U G36U U41C U43C, with 0.17; and A18G U25C A57G A64U, with 0.07.
As for A18U A28U U31C A35G U69A, the self-cleavage came out at 1.21.
On to A18U G33A G36C U54C, for which the self-cleavage was 0.13.
As to A18U U25C A77G, the self-cleavage was 0.07.
As for A18G U48C U51C, the self-cleavage was determined as 0.24.
Consider A18U U43C U48G U69A, for which the self-cleavage is 0.26.
As to A18U U43C U76C, the self-cleavage was found to be 0.45.
Consider A18G A45G U67C, for which the self-cleavage was 0.17.
Consider A18G U43C C44U U51G, for which the self-cleavage came to 0.11.
In the case of A18G A65U U66C U72G U76C, the self-cleavage came to 0.2.
Take A18G U26C U54C: the self-cleavage worked out at 0.31.
Regarding A18U U26A U69C A75G, the self-cleavage is 0.18.
Then A18G U41A A65U U74C, with 0.06; and A18U U26C A64G, with 0.13; and A18G C68U U72C, with 0.36.
Regarding A18G A57C C68U, the self-cleavage worked out at 0.34.
Under A18U G19A U60G stands 0.05; under A18G U49C A57G A65G U69C, 0.02; under A18G U25A U69C C81U, 0.18.
Then A18U U26C U60A A75U U76A, with 0.25; and A18U A64U A75U, with 0.35; and A18U A64U U80A, with 0.17.
On to A18G U25A U54A U80A, for which the self-cleavage was 0.12.
Under A18G A64G C68A stands 0.24; under A18U U26C U51C, 0.05.
As to A18G G61A U66C, the self-cleavage amounted to 0.1.
Under A18U C34U C40U U80C stands 0.22; under A18U A20U G46A G63U, 0.09.
Under A18U U25C U41C U72A stands 0.14; under A18U A20G U78C, 0.23; under A18G C23U U54A U60A A77G, 0.05.
Under A18U A28G A56G A65G U66C stands 0.04.
On to G19A A45G U60A, for which the self-cleavage turned out to be 0.42.
Then A18U G33A A47C U67C, with 0.08; and A18G G22A U25C U51C, with 0.18.
Then G19A U25A U41A A56G G73A A75G, with 0.17.
As to A18G U41C C44U, the self-cleavage was determined as 0.27.
Take A18G U41C G55U: the self-cleavage was found to be 0.51.
Then A18U C39A U72A, with 0.18; and G19A U26C A56G, with 0.09; and A18U U78C C81A, with 0.4.
Turning to G19A U26A U31A U51A U66C, the self-cleavage came to 0.07.
Then A18G U31A U74C, with 0.66.
On to A18G U25C A28U A35G C40U C79U, for which the self-cleavage is 0.28.
Then A18U A28G U41C C50A U80C, with 0.09.
Then A18U U41C G61A U69C, with 0.18; and A18G U48A A57U, with 0.91.
With A18G C40U U80A, the self-cleavage stood at 0.51.
Regarding A18U U31C G63A U67C U72A, the self-cleavage was 0.09.
Under A18G C39U U43G A56U U58A A65C stands 0.06.
Regarding A18U C34A A77U, the self-cleavage was determined as 0.09.
On to A18G C27A A35G, for which the self-cleavage is 0.
Then A18U A45U U72C, with 0.18.
As for A18G A35G U72C U78C, the self-cleavage was determined as 1.12.
Turning to A18G U25C A65G U80A, the self-cleavage came to 0.12.
As to A18U A28G U31A U41C U43A U72A U80C, the self-cleavage came to 0.12.
Under A18G C29U A45C U60C U66C stands 0.11; under A18G G33A A35G U72A, 0.13; under G19C A20C A77G, 0.23.
As to A18U U41C U49A A75G U80C, the self-cleavage worked out at 0.09.
Then G19A A56U U60C, with 0.14.
Then A18G G19A U49C, with 0.2; and A18U G33A A35U, with 0.15; and A18G U31A A35C A45U U69A U72C U78C, with 0.05.
Under A18U G33A A47G A64G C68G stands 0.13.
On to A18G A75G A77G, for which the self-cleavage stood at 0.42.
Consider A18G A45G U78C, for which the self-cleavage was determined as 0.39.
Then A18G U60A U67C, with 0.15; and A18G C23U A65G U72C U78C, with 0.04; and A18U U25C C27U A64G, with 0.16.
A18G G24A A56U A64G: the self-cleavage was 0.13.
In the case of A18G U26C U43G U58C, the self-cleavage came to 0.27.
Under A18G U26A A64G stands 0.36; under A18G G22A U76A U78A, 0.09; under A18G U49A A64G U66C U76A, 0.24.
Consider A18U A28G U41C, for which the self-cleavage worked out at 0.21.
Under G19C A20G A35G U51A U60A U69C stands 0.17; under A18G C27U A47G, 0.49; under A18G C62U U69A U72C, 0.21.
Regarding A18G U41A A45G A57G A75G U78C, the self-cleavage was 0.16.
Turning to A18U G19U A21G, the self-cleavage is 0.35.
Then A18G C32U U72A, with 0.2.
Take A18U U26C U69A A77U U78A: the self-cleavage was 0.59.
Then A18G C38U U67C, with 0.33.
Then A18G A64G U66C A75G, with 0.2; and A18U U26C C44G A75G U76A, with 0.16.
Under A18U C23U U80A stands 0.2; under A18U A57G A65G, 0.2; under A18U U25C A35G U48C, 0.08.
As to A18G U26C U43C A56G U67C U69C, the self-cleavage is 0.34.
Under A18U U31C U41C U69C stands 0.13.
For A18G C32U U41G A45U A64U, the self-cleavage worked out at 0.07.
Take A18G G36A U43C G46U A56G A57G U58C: the self-cleavage worked out at 0.21.
Under A18U U25A U49A G53A stands 0.06.
Under G19A U26C A45G C62A stands 0.32; under A18G U41A U78C, 0.4.
Under A18G C23A U41C G55C A57G U76A stands 0.13; under A18U A35U U41A A57U U72C U80C, 0.06; under A18G U26C A64U A65G, 0.09.
Regarding A18U U54C U58C A64G, the self-cleavage was found to be 0.15.
In the case of G19A C38G U48G U51C U54C A65G, the self-cleavage was determined as 0.17.
Then A18G U51A U69A G70A, with 0.17; and A18G G22C U49C A56G A57G U76A, with 0.21.
Then A18G U43C U69A A77G, with 0.32; and A18G C23U U31A U80G, with 0.08.
Under A18G C50A U72A stands 0.24.
A18U C32U U54A U72A: the self-cleavage was found to be 0.1.
Under A18G A56G U69A stands 0.36; under G19A A28G U74C A75G, 0.07; under A18U A28G U31C U41A U78C C79U, 0.04.
Under A18G U25C U41C U60A stands 0.58; under A18G C32U A45G, 0.24; under A18G U25C U51C A56G U76C A77G, 0.12.
Under G19C A21U A65G stands 0.08; under A18U U26C U31C U58A A64G, 0.15; under A18U U41C A56G U76C, 0.43.
As for A18G C23A C38G A45U U48C G63A A77G, the self-cleavage turned out to be 0.1.
Under A18U G22U C27U A47G U69A C79U stands 0.14.
Under A18G U31C C71G stands 0.12; under A18U C27A U69A, 0.08; under A18U C39A U48C A64G U67C C81U, 0.24.
As to A18U U54C U67C, the self-cleavage worked out at 0.19.
For the variant A18G U25C U54C, the self-cleavage came out at 0.17.
Then A18U A21G U67A C68A, with 0.18.
Then G19A A45G U48C U54A, with 0.11.
Under A18U C29G U41A stands 0.16.
Take A18U A20G U54C A64U: the self-cleavage stood at 0.13.
Under A18G G24C U51A U78C stands 0.21; under A18G G42C U49C G52A A57G A65G, 0.07.
